From patent publication US20240368250A1 (Ablynx, published 2024) come the findings set out here.

The target of test [1] is Mouse serum albumin (MSA; Albumin Bioscience Cat No. 2601) (mouse, UniProt P07724 25-608). Nature of the test: SPR Biacore 8K+, MSA on C1 chip, pH 7.4, off-rate column.
The target of test [2] is Human serum albumin (HSA; Sigma-Aldrich Cat No. A8763) (human, UniProt P02768). Nature of the test: SPR Biacore 8K+, HSA on C1 chip, pH 7.4, 1:1 fit.

UniProt P07724, sequence (P07724 25-608 limits assumed): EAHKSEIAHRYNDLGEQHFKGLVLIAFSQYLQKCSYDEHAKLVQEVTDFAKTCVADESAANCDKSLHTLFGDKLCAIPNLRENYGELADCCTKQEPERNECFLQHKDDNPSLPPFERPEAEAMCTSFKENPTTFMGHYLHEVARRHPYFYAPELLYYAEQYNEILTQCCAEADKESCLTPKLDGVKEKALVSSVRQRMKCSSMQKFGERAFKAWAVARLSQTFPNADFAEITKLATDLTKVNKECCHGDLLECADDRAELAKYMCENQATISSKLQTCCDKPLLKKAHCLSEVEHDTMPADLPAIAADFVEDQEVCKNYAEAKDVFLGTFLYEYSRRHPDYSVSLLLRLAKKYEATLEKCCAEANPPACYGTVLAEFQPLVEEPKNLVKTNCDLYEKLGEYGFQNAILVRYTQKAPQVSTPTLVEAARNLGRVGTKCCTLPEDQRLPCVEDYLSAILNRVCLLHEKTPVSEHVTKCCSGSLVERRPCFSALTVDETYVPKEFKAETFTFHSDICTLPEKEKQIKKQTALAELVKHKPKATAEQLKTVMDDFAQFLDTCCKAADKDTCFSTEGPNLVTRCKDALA

B1: TPP-66146 (Fc fusion)
chain 1: DVQLVESGGGVVQAGGSLSISCAASGGSLSNYVLGWFRQAPGKEREFVAAINWRGDITIGPPNVEGRFTISRDNAKNTGYLQMNSLAPDDTALYYCGAGTPLNPGAYIYDWSYDYWGRGTLVTVSSDKTHTCPPCPAPEAAGGPSVFLFPPKPKDTLMISRTPEVTCVVVDVSQEDPEVQFNWYVDGVEVHNAKTKPREEQFNSTYRVVSVLTVLHQDWLNGKEYKCKVSNKGLPSSIEKTISKAKGQPREPQVYTLPPCQEEMTKNQVSLWCLVKGFYPSDIAVEWESNGQPENNYKTTPPVLDSDGSFFLYSKLTVDKSRWQEGNVFSCSVMHEALHNHYTQKSLSLSLGGGGGSGGGGSGGGGSGGGGSGGGGSGGGGSGGGGS[sequence of about 120 residues omitted]
chain 2: DVQLVESGGGVVQAGGSLSISCAASGGSLSNYVLGWFRQAPGKEREFVAAINWRGDITIGPPNVEGRFTISRDNAKNTGYLQMNSLAPDDTALYYCGAGTPLNPGAYIYDWSYDYWGRGTLVTVSSDKTHTCPPCPAPEAAGGPSVFLFPPKPKDTLMISRTPEVTCVVVDVSQEDPEVQFNWYVDGVEVHNAKTKPREEQFNSTYRVVSVLTVLHQDWLNGKEYKCKVSNKGLPSSIEKTISKAKGQPREPQVCTLPPSQEEMTKNQVSLSCAVKGFYPSDIAVEWESNGQPENNYKTTPPVLDSDGSFFLVSKLTVDKSRWQEGNVFSCSVMHEALHNRFTQKSLSLSLG
notes: IgG4 FALA Fc knob-in-hole, C-terminal ALB11002 via 35GS
As to B1, the binding result in test [1] is recorded as “binds”. In test [2], this molecule came in with a Kd of 84.9 nM, a koff of 0.00486 s⁻¹ and an on-rate constant (kon) of 57200 M⁻¹ s⁻¹.
